The values below come from the supplement of paper PMC9446081.

Structures are written as SMILES. The campaign covered roughly 39,000 compounds. About 220 (0.56%) showed activity. The list shows a part of the results.
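Also: static incubation at 37 °C against the wild-type strain, values averaged over two biological replicates.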

The test deals with Escherichia coli K-12 BW25113. Put plainly: relative growth (OD600 normalised to plate interquartile mean) (fraction); higher = less growth inhibition, active = 0.2 or less. The conditions noted are these: 50 µM; LB; incubation time: overnight (16-24 h).
`COc1ccccc1CNC(=O)C[C@H]1CC[C@H]2[C@@H](COc3ccc(NC(=O)c4ccno4)cc3C(=O)N2C)O1`: the relative growth was inactive: 0.989. As for `CC(CN(C)C)CN1c2ccccc2Sc2ccccc21.O=C(O)C(O)C(O)C(=O)O` (stereo not drawn), the relative growth was inactive: 0.971.

Regarding `Cc1ccc(F)cc1NC(=O)[C@@H](C)N`, the relative growth was inactive: 1. As for `C[C@@H]1CN([C@H](C)CO)C(=O)c2cccc(NC(=O)c3ccc(-c4nccs4)cc3)c2O[C@H]1CN(C)Cc1ccc(-c2ccccc2)cc1`, the figure is inactive: 1.02.

As for `COc1ccc2c3c([nH]c2c1)[C@@H](CO)N(Cc1ccc(cc1)Cl)C[C@]13CCN(CC1)Cc1nccs1`, the relative growth is inactive: 0.999.

For `CCN(CC)CCNc1ccc(COc2ccccc2/C=C(C)/C=C/C(=O)NO)c2sc3ccccc3c(=O)c12`, the relative growth was inactive: 1.02.

For `C[C@@H]1CN([C@@H](C)CO)C(=O)c2cc(NC(=O)Nc3cccc4ccccc34)ccc2O[C@@H]1CN(C)Cc1ccc(Cl)c(Cl)c1`, the relative growth is inactive: 1.03. For `C[C@H]1CN([C@@H](C)CO)C(=O)c2cc(NC(=O)Nc3cccc4ccccc34)ccc2O[C@H]1CN(C)C(=O)Nc1ccccc1`, the relative growth was inactive: 0.91. The result for `Cn1cnc(S(=O)(=O)N2C[C@@H](O)COC[C@H]3O[C@@H](CC(=O)NCc4cccc(F)c4)CC[C@@H]32)c1` reads inactive: 0.998. With `CC(C)CS(=O)(=O)C1CN(S(C)(=O)=O)C1`, the relative growth was inactive: 0.998. The result for `COc1ccc(NC(=O)Nc2ccc3c(c2)C(=O)N([C@@H](C)CO)C[C@@H](C)[C@@H](CN(C)Cc2ccc(Oc4ccccc4)cc2)O3)cc1` reads inactive: 0.994; that for `C[C@@H]1CN([C@H](C)CO)C(=O)c2cc(NC(=O)C3CCCCC3)ccc2O[C@@H](C)CCCCO[C@@H]1CN(C)S(=O)(=O)c1ccccc1`, inactive: 1.02.

With `OC1(c2ccc(Cl)c(C(F)(F)F)c2)CCN(CCCC(c2ccc(F)cc2)c2ccc(F)cc2)CC1`, the relative growth was inactive: 0.913. The result for `Cc1ccc(S(=O)(=O)Nc2ccc3c(c2)C(=O)N([C@H](C)CO)C[C@H](C)[C@@H](CN(C)S(=O)(=O)c2ccc(F)cc2)O3)cc1` reads inactive: 0.997; that for `COc1ccc(NC(=O)Nc2ccc3c(c2)C(=O)N([C@@H](C)CO)C[C@@H](C)[C@@H](CN(C)C(=O)Nc2ccc(C(F)(F)F)cc2)O3)cc1`, inactive: 1.02; that for `C[C@@H]1CN([C@@H](C)CO)C(=O)CCCn2cc(nn2)CO[C@H]1CN(C)C(=O)C1CC1`, inactive: 1.02.

Consider `O=C(N1CCN(CCO)CC1)C(F)(F)F`, for which the relative growth was inactive: 1.02. The result for `COc1ccc(CN(C)C[C@@H]2OCCCC[C@H](C)Oc3ccc(NC(=O)Nc4cccc5ccccc45)cc3C(=O)N([C@@H](C)CO)C[C@H]2C)cc1` reads inactive: 1.

In the case of `O=S(=O)(NCCCN(C/C=C/c1ccc(F)cc1)C/C=C/c1ccc(F)cc1)c1cccc2cnccc12`, the relative growth was inactive: 0.905. The result for `COc1ccc(NC(=O)Nc2ccc3c(c2)C(=O)N([C@H](C)CO)C[C@H](C)[C@@H](CN(C)C(=O)Cc2ccccc2)OCCCC[C@H](C)O3)cc1` reads inactive: 0.999.

Take `COCC(=O)N(C)C[C@@H]1Oc2cc(C#CCC3CCCC3)ccc2S(=O)(=O)N([C@H](C)CO)C[C@@H]1C`: the relative growth was inactive: 0.998.

Turning to `C[C@H]1CN([C@@H](C)CO)C(=O)Cc2cc(NS(=O)(=O)c3cccs3)ccc2O[C@@H]1CN(C)S(=O)(=O)c1cccs1`, the relative growth was inactive: 0.998. As for `Cc1noc(C)c1NC(=O)N(C)C[C@H]1Oc2ccc(NC(=O)C3CC3)cc2CC(=O)N([C@@H](C)CO)C[C@@H]1C`, the figure is inactive: 0.994.

`O=C1C2CC3CC1CC(O)(C3)C2`: the relative growth was inactive: 1.14. As for `CCN1CCN(c2cc3c(cc2F)c(=O)c(C(=O)O)cn3C2CC2)CC1`, the figure is active: 0.0449; as for `O=C(C[C@@H]1CC[C@@H]2[C@H](COC[C@H](O)CN2S(=O)(=O)c2ccccc2)O1)NCc1ccc(-c2ccccc2)cc1`, inactive: 1. The result for `C[C@@H]1CCCCO[C@@H](CN(C)S(=O)(=O)c2ccccc2)[C@@H](C)CN([C@@H](C)CO)C(=O)c2cc(NC(=O)c3ccccc3)ccc2O1` reads inactive: 1.04. For `C[C@@H]1CN([C@@H](C)CO)C(=O)c2cc(NC(=O)Cn3cnnn3)ccc2O[C@H]1CN(C)C(=O)Nc1cccc2ccccc12`, the relative growth is inactive: 0.997.

For `C[C@@H]1CN([C@@H](C)CO)C(=O)c2cc(NS(=O)(=O)c3cn(C)cn3)ccc2O[C@@H](C)CCCCO[C@H]1CN(C)Cc1ccc(C(F)(F)F)cc1`, the relative growth was inactive: 0.987. The result for `COCC(=O)Nc1ccc2c(c1)C(=O)N(C)[C@@H]1CC[C@@H](CC(=O)NCc3ccccc3Cl)O[C@H]1CO2` reads inactive: 1.04. The result for `Cc1ccc(S(=O)(=O)Nc2ccc3c(c2)C(=O)N([C@@H](C)CO)C[C@H](C)[C@H](CN(C)C(=O)Cc2ccccc2)OCCCC[C@H](C)O3)cc1` reads inactive: 0.998; that for `O=C(C[C@H]1C[C@@H]2c3cc(NC(=O)c4ccc5c(c4)OCO5)ccc3O[C@@H]2[C@@H](CO)O1)NCc1cccnc1`, inactive: 0.994; that for `CCCCCNC(=N)NN=Cc1c[nH]c2ccc(OC)cc12.O=C(O)C=CC(=O)O`, inactive: 0.879. As for `CO[C@H]1O[C@H](CO)[C@@H](OC(=O)Nc2cccc(F)c2)[C@H](OC(=O)Nc2ccccc2-c2ccccc2)[C@@H]1OC(=O)Nc1ccccc1-c1ccccc1`, the figure is inactive: 1.04. As for `C[C@@H]1CN([C@@H](C)CO)C(=O)c2cc(NS(=O)(=O)c3ccccc3)ccc2O[C@@H](C)CCCCO[C@H]1CN(C)C(=O)CCC(F)(F)F`, the relative growth is inactive: 1.

As to `O=C1CSCCN1`, the relative growth was inactive: 1.01. As for `CCCN(C)C[C@H]1OCCCC[C@H](C)Oc2ccc(NC(=O)C3CCCCC3)cc2C(=O)N([C@@H](C)CO)C[C@H]1C`, the figure is inactive: 0.99; as for `CC1(C)[C@H]2CC[C@@]1(C)/C(=N/O)C2`, inactive: 0.993; as for `O=C(C[C@@H]1CC=CC[C@H](NC(=O)OCC2c3ccccc3-c3ccccc32)C(=O)O[C@@H](c2ccccc2)CNC1=O)N[C@@H](CO)Cc1ccccc1`, inactive: 1.01. As to `C[C@H](CO)N1C[C@H](C)[C@H](CN(C)Cc2ccc(Cl)c(Cl)c2)OCCCC[C@H](C)Oc2ccc(NC(=O)C3CCCCC3)cc2C1=O`, the relative growth was inactive: 0.994.

Regarding `CC(C)(O)c1coc(S(=O)(=O)NC(=O)Nc2c3c(cc4c2CCC4)CCC3)c1`, the relative growth is inactive: 1.01. The result for `COCCCN(C[C@]1(O)CC[C@H]2C3=CC=C4C[C@@H](O)CC[C@]4(C)[C@@H]3CC[C@@]21C)C(=O)O[C@H]1C[C@@H](C)CC[C@@H]1C(C)C` reads inactive: 1; that for `CO[C@@H]1CN(C)C(=O)c2cc(NC(=O)CC(F)(F)F)ccc2OC[C@@H](C)N(S(=O)(=O)c2cn(C)cn2)C[C@@H]1C`, inactive: 1.02; that for `O=C(C[C@H]1C=C[C@H](NC(=O)CN2CCOCC2)[C@@H](CO)O1)NCc1cccc(F)c1`, inactive: 0.997.

`C[C@H](CO)N1C[C@H](C)[C@H](CN(C)C(=O)Cc2ccccn2)Oc2ncc(-c3cccc(C(=O)N(C)C)c3)cc2C1=O`: the relative growth was inactive: 1.01. The result for `C[C@@H](NC(=O)C[C@@H]1C=C[C@@H](NC(=O)CN2CCOCC2)[C@@H](CO)O1)c1ccccc1` reads inactive: 0.966. For the molecule `COc1cc(NS(C)(=O)=O)ccc1Nc1c2ccccc2nc2ccccc12`, the relative growth was inactive: 1.02.

Take `CCOCC(=O)Nc1cc(C)on1`: the relative growth was inactive: 0.995. As for `C[C@@H]1CCCCO[C@H](CN(C)C(=O)c2ccncc2)[C@H](C)CN([C@H](C)CO)C(=O)c2cc(NC(=O)NC3CCCCC3)ccc2O1`, the figure is inactive: 0.994. As for `C[C@@H]1CN([C@@H](C)CN=[N+]=[N-])C(=O)c2cc(NC(=O)Nc3ccccc3)ccc2O[C@@H](C)CCCCO[C@H]1CN(C)S(=O)(=O)c1ccc(F)cc1`, the figure is inactive: 1.02; as for `C[C@H](CO)N1C[C@H](C)[C@@H](CN(C)S(=O)(=O)c2ccc(Cl)cc2)Oc2ccc(N(C)C)cc2CC1=O`, inactive: 1.04. The result for `COc1ccc(S(=O)(=O)Nc2ccc3c(c2)CC(=O)N([C@H](C)CO)C[C@@H](C)[C@@H](CN(C)CC2CC2)O3)cc1` reads inactive: 1.01; that for `CN1CCN(C(=O)C[C@H]2C[C@@H]3c4cc(NS(=O)(=O)c5ccc(F)cc5)ccc4O[C@@H]3[C@H](CO)O2)CC1`, inactive: 0.968.

As to `CC(C)NC(=O)Nc1ccc2c(c1)C(=O)N([C@@H](C)CO)C[C@H](C)[C@@H](CN(C)S(=O)(=O)c1cn(C)cn1)OCCCC[C@@H](C)O2`, the relative growth was inactive: 1.02.

As to `C[C@@H]1CN([C@H](C)CO)C(=O)CCCn2nncc2CO[C@H]1CN(C)C(=O)Nc1ccc(C(C)(C)C)cc1`, the relative growth was inactive: 0.99. On to `Cc1noc(C)c1NC(=O)Nc1cccc2c1O[C@@H](CN(C)Cc1ccc(Cl)c(Cl)c1)[C@@H](C)CN([C@@H](C)CO)C2=O`, for which the relative growth was inactive: 0.982.

Turning to `Cl.Cl.N=C(N)N`, the relative growth is inactive: 0.938. In the case of `Cc1noc(C)c1NC(=O)Nc1ccc2c(c1)C(=O)N([C@@H](C)CO)C[C@@H](C)[C@H](CN(C)C(=O)c1ccccc1)OCCCC[C@@H](C)O2`, the relative growth was inactive: 1.03. As for `CC(=O)N[C@H](CC(C)C)C(=O)O`, the figure is inactive: 1.04; as for `CO/N=C(\C(=O)N[C@@H]1C(=O)N2C(C(=O)O[C@@H](C)OC(C)=O)=C(COC(N)=O)CS[C@H]12)c1ccco1`, inactive: 1.01; as for `CO[C@H]1CN(C)C(=O)c2cc(NS(=O)(=O)c3cn(C)cn3)ccc2OC[C@@H](C)N(Cc2cccc(F)c2)C[C@@H]1C`, inactive: 1. The result for `CN(C)CCCC[C@@H]1NC(=O)[C@@H]2C[C@H](C(=O)NCCCCCNC(=O)CS)[C@H](c3ccc(O)cc3)N2C1=O` reads inactive: 0.993; that for `C[C@H]1CN([C@@H](C)CO)C(=O)c2c(c3ccccc3n2C)-c2ccccc2CO[C@@H]1CN(C)Cc1ccc(C(F)(F)F)cc1`, inactive: 1.06.
